# Results from PMC4336329 (PLoS ONE, 2015).
# Out of some 310,000 compounds screened, about 2,200 (0.71%) showed an effect of 50% or more. Effects have a minus sign here. Some of the results follow.
# Target: human ether-à-go-go-related gene (hERG) potassium channel (human, UniProt Q12809)
# Assay: primary screen, population patch clamp on CHO cells stably expressing hERG
# human ether-à-go-go-related gene (hERG) potassium channel, sequence (Q12809 whole entry, looked up): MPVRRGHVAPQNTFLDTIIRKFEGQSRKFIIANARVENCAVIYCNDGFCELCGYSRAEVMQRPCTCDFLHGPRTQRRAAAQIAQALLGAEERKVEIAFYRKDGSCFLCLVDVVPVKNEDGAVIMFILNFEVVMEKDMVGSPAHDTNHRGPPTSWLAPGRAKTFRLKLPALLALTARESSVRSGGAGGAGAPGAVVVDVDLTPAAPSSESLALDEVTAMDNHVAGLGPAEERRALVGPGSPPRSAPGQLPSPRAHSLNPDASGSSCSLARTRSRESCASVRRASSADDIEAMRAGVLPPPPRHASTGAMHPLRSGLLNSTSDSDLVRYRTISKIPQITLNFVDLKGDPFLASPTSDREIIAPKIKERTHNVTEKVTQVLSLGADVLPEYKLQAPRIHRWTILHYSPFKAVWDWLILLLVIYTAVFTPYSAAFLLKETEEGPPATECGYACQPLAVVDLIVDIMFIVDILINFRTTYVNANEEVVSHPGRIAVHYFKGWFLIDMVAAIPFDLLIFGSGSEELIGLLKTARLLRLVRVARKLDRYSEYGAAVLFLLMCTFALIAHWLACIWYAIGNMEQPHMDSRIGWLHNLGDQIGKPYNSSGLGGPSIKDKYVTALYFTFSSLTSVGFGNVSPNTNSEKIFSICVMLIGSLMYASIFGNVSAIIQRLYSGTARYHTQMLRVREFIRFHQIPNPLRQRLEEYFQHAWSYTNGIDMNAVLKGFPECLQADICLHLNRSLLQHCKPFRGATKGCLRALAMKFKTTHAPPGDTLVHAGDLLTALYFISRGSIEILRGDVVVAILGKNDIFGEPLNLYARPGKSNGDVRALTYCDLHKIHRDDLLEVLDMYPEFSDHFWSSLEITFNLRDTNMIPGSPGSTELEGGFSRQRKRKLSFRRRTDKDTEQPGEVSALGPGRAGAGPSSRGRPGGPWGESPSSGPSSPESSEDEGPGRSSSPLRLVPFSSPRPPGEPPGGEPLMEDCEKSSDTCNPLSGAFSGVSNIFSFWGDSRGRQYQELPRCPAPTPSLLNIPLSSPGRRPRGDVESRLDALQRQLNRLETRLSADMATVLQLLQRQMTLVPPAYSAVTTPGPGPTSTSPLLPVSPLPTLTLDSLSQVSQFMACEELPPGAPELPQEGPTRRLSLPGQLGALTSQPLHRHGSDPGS
row,SMILES,"hERG current change (%, negative = inhibition) at 1uM"
1,O=C(O)c1cc(NN=C2c3ccccc3-c3ccccc32)ccc1Cl,11.4%
2,O=C(Cc1nnc(NC(=O)c2ccccc2)s1)N/N=C/c1cccc(O)c1,18.9%
3,COC(=O)c1c(NC(=O)CC2SC(N)=NC2=O)sc2c1CCCC2 (centres unmarked),12.2%
4,CCOC(=O)C1(Cc2ccccc2)CCN(Cc2cc(OC)c3c(c2)OCO3)CC1,0.839%
5,CCCn1ncc(OC)c(Cl)c1=O,13.1%
6,Cc1cc(NC(=O)CN2C(=O)NC(Cc3ccccc3)C2=O)no1 (centres unmarked),1.73%
7,CCOC(=O)CSc1nc2sc3c(c2c(=O)n1-c1ccccc1)CCN(C(C)C)C3,14%
8,CCc1cc2c(N[C@@H](Cc3ccccc3)C(=O)O)ncnc2s1,14.4%
9,Clc1cc(/C=N\NC2=NCCN2)cc(Cl)n1,-0.437%
10,Nn1c(SCC(=O)Nc2ccc(F)cc2F)nnc1C1CCCCC1,-1.02%
11,CCN1CCN(CCC(=O)Nc2cccc(OC)c2)CC1.Cl,-3.67%
12,CCN(CC)CCNC(=O)c1cn(CC)c2ccc(S(=O)(=O)N3CCOCC3)cc2c1=O,16.9%
13,CCOc1cc(NC(=S)NCCCN2CCOCC2)c(OCC)cc1NC(=O)c1cccc(F)c1,-0.782%
14,CCOc1ccccc1-n1c(SCC(N)=O)nc2ccccc2c1=O,-2.44%
15,COc1ccc(S(=O)(=O)N2c3ccccc3NC(=O)CC2C)cc1 (centres unmarked),5.59%
16,O=C(CCN1c2ccccc2Sc2ccccc21)OCc1nnc(-c2ccccc2)o1,11.5%
17,CCOC(=O)c1c(C)c(C(=O)NCCOC)c(C)n1CC,-2.65%
18,Nn1c(SCC(=O)N2CCCCC2)nnc1-c1ccncc1,11.9%
19,Cc1ccc(OCC(=O)NN2C(=O)c3ccccc3C2=O)cc1,3.38%
20,Cc1ccc(Cn2ncc(C)c2N)o1,14.1%

row,SMILES,"hERG current change (%, negative = inhibition) at 1uM"
1,CCOC(=O)C(=NC(C)(C)C)NNc1cc(Cl)ccc1Cl,6.25%
2,COc1ccc(Cc2nnc(NC(=O)C3CC(=O)N(c4ccccc4C)C3)s2)cc1OC (centres unmarked),14.8%
3,O=C1C2C(C(=O)N1/N=C/c1cc([N+](=O)[O-])c(O)cc1O)C1C=CC2C12CC2 (centres unmarked),4.77%
4,CC1=Nn2c(nnc2-c2ccccn2)SC1,-1.54%
5,Cc1ccc(S(=O)(=O)N2CCN(S(=O)(=O)c3ccc(C)cc3)C2)cc1,5.65%
6,COc1cc(NC(=O)c2cccnc2)ccc1NC(=O)c1ccccc1Cl,14%
7,CCc1cc(SC#N)ccc1N,9.67%
8,CC(C)CNC(=O)c1cccc(Cn2cc(Cl)cn2)c1,16.8%
9,O=C(CSc1nnc(CNC(=O)c2c(F)cccc2F)o1)NCc1ccco1,15.9%
10,O=C(COc1ccc(S(=O)(=O)N2CCOCC2)cc1)NC1CCCC1,-7.06%
11,O=C1CSC(c2ccccc2)N1c1ccccc1F (centres unmarked),1.19%
12,O=C(O)c1cc(S(=O)(=O)Nc2ccc3cn[nH]c3c2)ccc1O,8.3%
13,COC/C=C/C1=CC2=CC(=O)C(C)(OC(=O)CCC(=O)OC)C(=O)C2=CO1 (centres unmarked),8.02%
14,CCCNC(=O)c1c(N)n(Cc2ccco2)c2nc3ccccc3nc12,8.24%
15,O=C(CN(Cc1ccc(F)cc1)S(=O)(=O)c1ccc(S(=O)(=O)N2CCOCC2)cc1)Nc1ccccc1,5.94%
16,Cc1sc2ccccc2[n+]1CC(=O)O.[Br-],12.3%
17,COC(=O)CSCC(=O)Nc1nnc(-c2cccc(C)c2)s1,6.73%
18,COc1ccc(C(CNC(=O)CN2C(=O)NC3(CCCC3)C2=O)N(C)C)cc1 (centres unmarked),13.2%
19,Cc1ccnc(NC(=O)CNC(=O)c2ccco2)c1,9.8%
20,CCOc1ccc(C(=O)Nc2cc(Cl)ccc2-n2cncn2)cc1OC,10.5%

row,SMILES,"hERG current change (%, negative = inhibition) at 1uM"
1,Cc1ccc(S(=O)(=O)N(C)C)cc1NC(=O)CN1C(=O)NC(Cc2ccccc2)C1=O (centres unmarked),15.9%
2,Cc1cc(N2C(=O)C3C4C=CC(C4)C3C2=O)no1 (centres unmarked),16.5%
3,O=C(Nc1cccc(C(F)(F)F)c1)c1cccnc1,0.882%
4,CN(C)c1ccc2nsnc2c1[N+](=O)[O-],11%
5,COCc1cc(C(C)=O)ccc1OC,-0.348%
6,Cc1ccc(S(=O)(=O)c2cn(Cc3ccc(F)cc3)c3cc4c(cc3c2=O)OCO4)cc1,1.24%
7,CCC(=O)O.O=C(Nc1cccc(C2=NCCN2)c1)Nc1cccc(C2=NCCN2)c1,2.28%
8,COc1cccc(CN2CCN(C3CCN(c4ccccc4F)CC3)CC2CCO)c1 (centres unmarked),-28.4%
9,Clc1ccc(-n2nnnc2-c2cnc3ccccc3c2-c2ccccc2)cc1,8.35%
10,Clc1ccccc1N1CCN(c2ncnc3nc[nH]c23)CC1,13.7%
11,O=S(=O)(Nc1ccc(-c2cn3cccnc3n2)cc1)c1ccccc1,1.21%
12,O=C(Nc1cccc(Br)c1)c1ccc(CSc2ccccc2)cc1,3.76%
13,O=C(OCCN1CCN(C2=NS(=O)(=O)c3ccccc32)CC1)c1ccccc1F,12.2%
14,COc1ccc(CNC(=O)CCN2C(=O)c3ccccc3C2=O)cc1OC,14.7%
15,CC1=NOC(=O)/C1=C/c1ccc2c(c1)OCO2,7.68%
16,CCC1(CC)C(=O)NC(=O)NC1=Nc1cccc(OC)c1,8.24%
17,c1ccc(OCc2nc(-c3ccncc3)no2)cc1,6.55%
18,Cn1cccc1C(=O)NC(=O)COC(=O)c1ccccc1Sc1ccccc1C#N,-2.72%
19,CC(=O)Nc1ccc(/C(C)=N/NC(=O)CN(c2ccccc2Br)S(C)(=O)=O)cc1,11.9%
